Source: paper PMC2276093
No constants are given. Whether binding was seen depends on the method and setting. In cells and extracts the contact can be indirect. Some results given as binding are weak or reduced against the parent protein; the word gives no strength.

Amino acid sequences for entries named in this document (tags omitted). Residues count along the entry.
UniProt P09055, residues 21-798: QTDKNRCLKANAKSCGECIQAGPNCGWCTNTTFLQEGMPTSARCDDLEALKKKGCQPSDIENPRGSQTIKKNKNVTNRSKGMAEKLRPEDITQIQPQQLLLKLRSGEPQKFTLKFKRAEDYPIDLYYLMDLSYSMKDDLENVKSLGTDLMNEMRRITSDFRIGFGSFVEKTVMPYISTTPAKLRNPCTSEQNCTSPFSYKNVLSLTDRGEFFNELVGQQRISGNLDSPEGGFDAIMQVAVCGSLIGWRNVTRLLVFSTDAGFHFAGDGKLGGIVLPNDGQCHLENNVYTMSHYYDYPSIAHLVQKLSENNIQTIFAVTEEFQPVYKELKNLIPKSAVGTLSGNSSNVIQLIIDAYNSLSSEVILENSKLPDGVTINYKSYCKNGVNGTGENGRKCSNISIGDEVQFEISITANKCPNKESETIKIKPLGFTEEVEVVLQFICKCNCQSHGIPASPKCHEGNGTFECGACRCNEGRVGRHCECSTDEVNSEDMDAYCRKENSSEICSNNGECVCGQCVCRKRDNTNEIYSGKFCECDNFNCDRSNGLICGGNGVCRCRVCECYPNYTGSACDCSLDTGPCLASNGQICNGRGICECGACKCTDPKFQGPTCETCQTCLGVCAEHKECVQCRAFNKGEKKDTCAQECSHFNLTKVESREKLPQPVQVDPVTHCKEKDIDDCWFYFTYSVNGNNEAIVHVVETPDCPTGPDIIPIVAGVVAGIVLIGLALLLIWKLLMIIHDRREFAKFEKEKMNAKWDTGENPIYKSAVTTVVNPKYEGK

What was measured:
[1] = target: T1, integrin a4 subunit (uncleaved, a4 150) (mouse (endogenous in TK1 and 38B9)) (UniProt Q00651); assay: co-IP; surface-iodinated 38B9 cells, 1% NP-40 lysis buffer; precleared, undepleted lysate precipitated with SG31- or PS/2-coupled Affi-gel 10 beads; SDS-PAGE (7.5%) reducing, autoradiography; bands named by size
T1 sequence (chain, surface radioiodinated (lactoperoxidase method)): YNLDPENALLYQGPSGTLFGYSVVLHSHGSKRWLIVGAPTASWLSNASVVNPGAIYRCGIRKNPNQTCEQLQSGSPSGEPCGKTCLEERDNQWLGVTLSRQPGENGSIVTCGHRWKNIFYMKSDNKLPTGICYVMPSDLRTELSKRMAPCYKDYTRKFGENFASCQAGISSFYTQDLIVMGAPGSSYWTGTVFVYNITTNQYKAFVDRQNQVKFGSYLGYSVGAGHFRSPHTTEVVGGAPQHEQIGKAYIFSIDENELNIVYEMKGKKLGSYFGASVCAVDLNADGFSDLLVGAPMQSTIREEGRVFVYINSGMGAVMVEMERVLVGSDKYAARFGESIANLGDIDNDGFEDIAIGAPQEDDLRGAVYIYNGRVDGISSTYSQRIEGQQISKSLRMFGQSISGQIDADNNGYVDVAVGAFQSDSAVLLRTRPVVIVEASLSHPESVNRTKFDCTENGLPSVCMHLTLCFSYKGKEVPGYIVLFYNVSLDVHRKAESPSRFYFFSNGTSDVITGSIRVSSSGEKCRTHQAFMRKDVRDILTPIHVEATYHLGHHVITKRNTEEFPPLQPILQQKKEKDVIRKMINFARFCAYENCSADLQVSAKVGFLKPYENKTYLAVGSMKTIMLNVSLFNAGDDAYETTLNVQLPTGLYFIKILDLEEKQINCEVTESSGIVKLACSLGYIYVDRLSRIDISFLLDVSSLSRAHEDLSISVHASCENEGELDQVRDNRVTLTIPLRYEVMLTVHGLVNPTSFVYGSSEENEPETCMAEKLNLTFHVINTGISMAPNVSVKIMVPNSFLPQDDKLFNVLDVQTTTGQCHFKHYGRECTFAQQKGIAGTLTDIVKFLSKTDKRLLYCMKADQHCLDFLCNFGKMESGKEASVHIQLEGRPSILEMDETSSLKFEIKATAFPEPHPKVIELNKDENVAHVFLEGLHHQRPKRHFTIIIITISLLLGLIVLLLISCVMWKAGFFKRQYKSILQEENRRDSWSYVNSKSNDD

[2] = target: T2, integrin b7 subunit (mouse (endogenous in TK1)) (UniProt P26011); assay: condition: only cations depleted by 20 mM EDTA and EGTA each; co-IP; as a1 but lysis buffer depleted of cations by 20 mM EDTA and EGTA each
T2 sequence (chain, surface radioiodinated (lactoperoxidase method)): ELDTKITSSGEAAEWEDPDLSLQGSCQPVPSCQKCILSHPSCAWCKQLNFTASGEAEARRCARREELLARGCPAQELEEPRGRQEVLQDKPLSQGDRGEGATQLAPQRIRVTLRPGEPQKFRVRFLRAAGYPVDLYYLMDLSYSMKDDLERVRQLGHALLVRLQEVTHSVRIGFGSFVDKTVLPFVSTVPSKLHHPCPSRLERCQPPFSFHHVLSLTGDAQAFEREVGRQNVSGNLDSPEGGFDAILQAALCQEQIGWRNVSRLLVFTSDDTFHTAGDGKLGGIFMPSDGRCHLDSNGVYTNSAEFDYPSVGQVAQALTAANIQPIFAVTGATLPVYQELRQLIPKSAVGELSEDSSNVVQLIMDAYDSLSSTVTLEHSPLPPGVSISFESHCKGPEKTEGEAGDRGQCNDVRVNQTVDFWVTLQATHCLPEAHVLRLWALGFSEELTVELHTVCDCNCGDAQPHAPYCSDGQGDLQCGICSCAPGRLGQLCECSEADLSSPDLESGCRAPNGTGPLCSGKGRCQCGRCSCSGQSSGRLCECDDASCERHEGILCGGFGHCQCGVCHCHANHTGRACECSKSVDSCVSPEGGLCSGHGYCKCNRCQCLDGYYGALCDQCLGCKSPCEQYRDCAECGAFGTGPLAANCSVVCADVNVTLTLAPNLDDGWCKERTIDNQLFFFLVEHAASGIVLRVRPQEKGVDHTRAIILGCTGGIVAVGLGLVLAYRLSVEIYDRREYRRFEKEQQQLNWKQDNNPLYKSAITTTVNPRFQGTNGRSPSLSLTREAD

[3] = target: T2, integrin b7 subunit (mouse (endogenous in TK1)); assay: co-IP; surface-iodinated TK1 cells, 1% NP-40 lysis buffer supplemented with 5 mM CaCl2, MgCl2 and MnCl2 each; precleared lysate precipitated with SG31-, PS/2- (anti-a4) or M293- (anti-b7) coupled Affi-gel 10 beads; SDS-PAGE non-reducing, autoradiography; bands named by size
[4] = target: T1, integrin a4 subunit (uncleaved, a4 150) (mouse (endogenous in TK1 and 38B9)); assay: condition: only cations depleted by 20 mM EDTA and EGTA each; co-IP; as a1 but lysis buffer depleted of cations by 20 mM EDTA and EGTA each
[5] = target: T1, integrin a4 subunit (uncleaved, a4 150) (mouse (endogenous in TK1 and 38B9)); assay: co-IP; surface-iodinated TK1 cells, 1% NP-40 lysis buffer supplemented with 5 mM CaCl2, MgCl2 and MnCl2 each; precleared lysate precipitated with SG31-, PS/2- (anti-a4) or M293- (anti-b7) coupled Affi-gel 10 beads; SDS-PAGE non-reducing, autoradiography; bands named by size

Molecule: integrin b1 subunit (from UniProt P09055 21-798)
- binding [1]: binds

B1: integrin a4 subunit (uncleaved, a4 150) (protein, UniProt Q00651 41-1039)
chain: T1 sequence (chain, surface radioiodinated (lactoperoxidase method))
modifications: surface radioiodinated (lactoperoxidase method)
- binding [2]: no binding
- binding [3]: binds

B2: integrin b7 subunit (protein, UniProt P26011 20-806)
chain: T2 sequence (chain, surface radioiodinated (lactoperoxidase method))
modifications: surface radioiodinated (lactoperoxidase method)
- binding [4]: no binding
- binding [5]: binds
